# Results as given in the supplement of paper PMC11417369.
# ± gives the standard deviation of the averaged measurements. The list shows a part of the results.
# System: PfAP2-I AP2 domain 3 (GST-tagged)
# Assay: gcPBM binding intensity (ln(normalized median fluorescence intensity)); higher = stronger DNA binding
# Summary of the method: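 The binding buffer was 1× PBS containing 1% milk, 0.2 mg/ml BSA, 0.5% salmon testes DNA and 0.03% Triton X-100. In it, GST-tagged P. falciparum DNA-binding domains expressed in E. coli were applied for 1 h to an Agilent 4 × 180k array of primer-extended double-stranded 36-bp intergenic genomic probes plus negative controls. Binding intensity, read with Alexa488 anti-GST antibody and a 488 nm scan, is the highest Masliner-normalised natural-log median intensity across replicate spots of either probe orientation.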
row,Sequence,gcPBM binding intensity (ln)
1,ATTTAAAAAAAAAGACGTACATTTATATAGAATCCT [XGTACX_site6457],8.01 ± 0.45
2,TTATTCATACAATATCGTACATATATATATATATAT [XGTACX_site1185],9.47 ± 0.33
3,TCTAATCTGGAGAAAAGTACATAGTATCTGGTAACA [XGTACX_site2540],7.68 ± 0.68
4,GTACACCTATAATATACACACAACAAATATGCACAT [CACACA_site6603],9.64 ± 0.39
5,ATTATATATATATATACACACACATATATATATATA [CACACA_site8373],9.33 ± 0.67
6,ATCTTATATATATGTGTGCACGTATATATAAGCAAT [GTGCAC_site9933],10.7 ± 0.32
7,TTATAAATAAAAAGAGTGCAATTATAAATATATATA,10.1 ± 0.23
8,AAATAAAATATGAACAGTACTTTTGATATAACCATT [XGTACX_site1873],7.74 ± 0.64
9,AAAAAAATACAAATATGTACACATATATATTTAAAA [XGTACX_site4729],7.62 ± 0.2
10,GGAATAACCGGACACACACACACATATATATATATA [CACACA_site5874],9.31 ± 0.19
11,ACATAATATATATATTGTACAAATATATTATTGTTA [XGTACX_site3385],7.69 ± 0.42
12,AAAAAATTATATAATAATAGAACTATACATTTTATT [GTGCAC_negctrl_site645],7.31 ± 0.41
13,AGCCACGGGTTATATACACACATAATCAAATAAAAT [CACACA_site6117],7.79 ± 0.45
14,ATTTTTAATGGATAAGTGCATAATATTATGATGCAA,10.9 ± 0.64
15,TATGTAATAAAATATACACACAATATACTTATATAT [CACACA_site3682],7.53 ± 0.55
16,AGAAAGATGCAAGAAACATGCAAAAAAAAAATTTCT [TGCATGCA_site725],7.85 ± 1
17,TGTATTCCTTTTTATAGTACAATTTAAAAGTATAAA [XGTACX_site2045],7.89 ± 0.16
18,CACAAATATACAAATACACACAAATATACTCATATA [CACACA_site5339],7.46 ± 0.26
19,TACATAAATTAATAGTCACACACGTATTTTTTATAT [CACACA_site8806],7.57 ± 0.52
20,TAGTTCCTCAAAAATTTCCTTTGTCATTTTATTCAC [GTGCAC_negctrl_site20],7.6 ± 0.83
21,GTTATACAAAATAATACATGCATGTCCTACATATAT [TGCATGCA_site320],8.21 ± 0.24
22,TAAAGAAATTCTTCATGTACTTATTATTTCTCTTTT [XGTACX_site6817],7.66 ± 0.61
23,TATGGAATAAATTTATCCATACATCTTATAACATAT [XGTACX_negctrl_site500],7.68 ± 0.47

row,Sequence,gcPBM binding intensity (ln)
1,AGCTATATAAATAATACATGCATTGTTCAGGTATTT [TGCATGCA_site964],7.68 ± 0.55
2,ATTTATAATATTCAAGTGCATATATATTTTTTACTT,9.57 ± 0.14
3,TACATAAAATATATCACACATATAATATATATATAT [CACACA_site5834],8.8 ± 0.13
4,AAAAAAAAAAAAAAATATAAATATATATATATATAT [GTGCAC_negctrl_site28],9.27 ± 0.23
5,TATGTATTAAATTTTACACACATGATTCTCTATATA [CACACA_site2298],7.63 ± 0.4
6,AATTAAATATTATAAACACACATATATATTATTTTT [CACACA_site865],7.5 ± 0.42
7,AAACGAACATATAAATGTACATATATATACATATAT [XGTACX_site8086],7.83 ± 0.43
8,TACAAAAAAAATGTATTTAGGACATATATATGTTTA [XGTACX_negctrl_site455],7.24 ± 0.36
9,ATTGTAAATATAGAAGTGCAAAAGGGTATGAAATGA,10.07 ± 0.021
10,TATATAAAATAATAATGTACTCATTAAAATTATAGA [XGTACX_site4507],7.535 ± 0.064
11,ATGTATCCAATAGGAGTGCATAATTCTATTAACACC,10.7 ± 0.59
12,AAAGAAAAAAAAAAAAAAAAAAAAAAAATTATACAT [CACACA_negctrl_site7],7.35 ± 0.45
13,ATATATATATATATATGTACATATATTCGATTATTA [XGTACX_site557],9.49 ± 0.6
14,ATAATATTTCTTACCTTTGGATGTTCTAATTTTTTT [CACACA_negctrl_site1317],7.79 ± 0.86
15,GAATTTCGATATATGTGTACGCATTTGTATTATAGG [XGTACX_site6332],7.94 ± 0.52
16,TACATATTGCACAAATAAAAAAGAACAAAAAAAAAA [CACACA_negctrl_site1200],10.7 ± 0.79
17,AAAAATAACATATAAACACACATATATATATATATA [CACACA_site3802],9.31 ± 0.35
18,TACTTTATATTATATATATATATATATATATATATA [CACACA_negctrl_site1765],9.14 ± 0.61
19,AATAATAATTTGAATACACACAATAATATATATATA [CACACA_site2059],8.95 ± 0.092
20,ATACAAAAAATCACATGTACATATTCTTAAATGGTA [XGTACX_site8502],8.02 ± 0.4
21,TACCTTTCTTATTATTGAAAAGGAATATATAAATAG [CACACA_negctrl_site272],7.64 ± 0.49
22,TTATATCATTTTCCTGCACACATAAATTTATATAAT [CACACA_site8257],9.24 ± 0.49
23,ACAAAATATACAAAATGTACAAAATATACAAAATGT [XGTACX_site6467],7.58 ± 0.49

row,Sequence,gcPBM binding intensity (ln)
1,TTATTCTAAAAGTGTTTGCACTTTTATAATCATATA [GTGCAC_site9929],9.44 ± 0.38
2,TATACAGATAAATACACACACACATATATATATATA [CACACA_site4845],9.38 ± 0.4
3,CATATGTATTTATTCACACATATATATATATATATA [CACACA_site4207],9.36 ± 0.57
4,AATACATTTATGAGCTGTACACATTTATTTGAGCTA [XGTACX_site7695],7.95 ± 0.057
5,ATATATATTAATATTTGTACATAAAATTATTTCAAT [XGTACX_site5364],7.97 ± 0.53
6,AAAGTAACACACTAATATTTTAACAAATAATATATA [GTGCAC_negctrl_site132],7.7 ± 0.23
7,AGTGTAATTTTCCACTGTACTTTTCTTGTATATAAT [XGTACX_site4201],8.26 ± 0.27
8,TCTTAAAATCGGAAATGAAATAAAGTTTACAATATG [TGCATGCA_negctrl_site553],7.58 ± 0.69
9,TGATTCTGTCATGGTGCACACCAGAACCATTATAAA [CACACA_site1965],10.3 ± 0.41
10,TGTTTAATCACATGTTTGCACTTTCCTTTTGTAAAT [GTGCAC_site9893],9.45 ± 0.16
11,ATATATAAATATATATGTACACACATATACATGTTG [XGTACX_site6653],7.76 ± 0.38
12,AATTATTCTATATATTGTACATGTTTGTTTTTTTTT [XGTACX_site3130],7.75 ± 0.56
13,TAATATATATTATTATGTACATATATTGATTCCTTG [XGTACX_site6830],8.11 ± 0.35
14,TATTTATTAATATGTACACACATCAACCATATTAAC [CACACA_site7001],8.01 ± 0.35
15,CCAAAATACATTAAACGTACATGTCCTAATAAGATA [XGTACX_site21],7.83 ± 0.25
16,TTCTTATATATATACACACACAAAATATCTACAATG [CACACA_site736],7.99 ± 0.51
17,TTGTTTTTATAAATATTATTACAATGAAAAAAAAAA [TGCATGCA_negctrl_site185],7.79 ± 0.52
18,AATCTGATCTTTTAAAGTACACAAAAAAAAAAAAAA [XGTACX_site115],8.04 ± 0.4
19,AGGTTATAAATAAATACACACATACAAAAATATGAC [CACACA_site4773],7.75 ± 0.63
20,AAAAAAAAAAAAAAAAGTACGTATCAAAGCATCAAA [XGTACX_site880],8.75 ± 0.49
21,CATATATATATATGTACACACATTAATAAAAAAAAA [CACACA_site3230],7.96 ± 0.3
22,GTTTAACTGTTTTATACACACAATGTATACAATAAA [CACACA_site2959],7.83 ± 0.55
23,AATGAACACCTAAAATGTACGTACAAATATATTTTA [XGTACX_site7067],7.99 ± 0.45

row,Sequence,gcPBM binding intensity (ln)
1,TTTGAGTGCACATACACACAGACATACATTTAAATA [CACACA_site3403],10.6 ± 0.56
2,ATGTTTAATTTTTTTTTGTCCCTATAGAAGTGTCAA [CACACA_negctrl_site1103],7.82 ± 0.6
3,AATGAATAAATAAACACACACACATATATAAATATG [CACACA_site6160],7.93 ± 0.43
4,AAAACAAACAGACACACACACATATATATATATATA [CACACA_site3655],9.41 ± 0.52
5,TTTAAAATTTTTTTTTTTTTTTTTTTTTTTTTTTAT [TGCATGCA_negctrl_site213],7.26 ± 0.39
6,ATATAAATATGTTCTGCACACAAATAAGTGTTTGAA [CACACA_site9291],8.57 ± 0.37
7,ATAACCTAATAATACACACACATGAATATATAGAAT [CACACA_site963],8.04 ± 0.35
8,ATAAATAATAAGGTTACAACAAACACACAAAGGAAT [XGTACX_negctrl_site611],8.46 ± 0.64
9,GGTTATAACCCACATGCACACGTAAATAAATATTAT [CACACA_site5992],8.77 ± 0.3
10,TGTCCAATTTATTGTGCACACCTCAAAAGTGGGTAA [CACACA_site3826],10.8 ± 0.28
11,TAAAAAAAAAAGTATACACACTTCTTAATGTCAACA [CACACA_site4818],7.36 ± 0.46
12,TTTTTTTATAAATTCACACAAAATATAATATTAAAA [CACACA_site4766],7.58 ± 0.46
13,CTATATATTTTTCATTGTACACAAATTAAAGAAAAA [XGTACX_site8385],8.105 ± 0.064
14,AATGTCATCATATTCATATATATTTATTTCTTTTTG [GTGCAC_negctrl_site500],7.68 ± 0.57
15,ATGATGGAATATTCTACACACAATTAATAAACAAAC [CACACA_site1045],8.04 ± 0.78
16,ATATAATCCTTTCAAACACACAAAATATAATTAATA [CACACA_site1829],7.76 ± 0.54
17,GATGATACACAGGTGTTGCACTTAAATGCAGTTCTT [GTGCAC_site9627],9.4 ± 0.28
18,ATTAAAATAGAAAAAAAAAAAAAAAAAAAAAAAAAA [CACACA_negctrl_site1117],8.29 ± 0.58
19,TATGGGGAACTATAATGTACGTATTCCTCATATATA [XGTACX_site338],8.01 ± 0.27
20,TTTTCAAAATGTTGTACACACAAAAAAAAAAAAAAA [CACACA_site1550],8.31 ± 0.38
